{
  "source": "the supplement of paper PMC10126150",
  "note": "Values marked as one replicate rest on one cluster of the flow cell; about a third of the high ones do not repeat.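 Note: ATP exposure 15 min at 22 °C before imaging.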",
  "data": [
    {"tested_on": "ATP", "test": "switch fluorescence ratio, 500 uM ATP over buffer (Cy3 cluster intensity, sum of 5 cycles each) (fold (ratio)); higher = stronger signal-on switching upon ATP binding; sequences stand for … in TCGTCGGCAGCGTCAGATGTGTATAAGAGACAGTTTTTTTTTTTTTTTTTTTTTTTTT…TC", "conditions": "aptamer strand: ATP DNA aptamer (quencher-CACCTGGGGGAGTATTGCGGAGGAAGG + anchor), 100 nM annealed; ATP concentration: 500 uM; one replicate", "method_in_brief": "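The fluorescence ratio divides summed target-cycle Cy3 intensity by summed buffer-cycle Cy3 intensity for each cluster and is averaged per switch-domain sequence. Cy3-labelled switching-strand clusters on a modified Illumina MiSeq flow-cell were annealed to 100 nM quencher-labelled ATP aptamer, then imaged in selection buffer and again after 15 min with 500 uM ATP at 22 °C. Five such cycles were run, with NaOH stripping and re-annealing between them, and clusters outside 100-1000 RFU were excluded.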", "values": [
      {"sequence": "AAGTCTGGAT", "switch fluorescence ratio": 0.998},
      {"sequence": "TGAGGGTCCG", "switch fluorescence ratio": 1.03},
      {"sequence": "CTTTAAAG", "switch fluorescence ratio": 0.99},
      {"sequence": "TCGAAGATA", "switch fluorescence ratio": 1.01},
      {"sequence": "TCCTGAGAGG", "switch fluorescence ratio": 1.04},
      {"sequence": "TTAGAATGTT", "switch fluorescence ratio": 0.997},
      {"sequence": "CTCAGGATAG", "switch fluorescence ratio": 1.31},
      {"sequence": "AGGTAGCGCG", "switch fluorescence ratio": 0.992},
      {"sequence": "ACGGTTTTAT", "switch fluorescence ratio": 1.01},
      {"sequence": "GCGGTAGCTG", "switch fluorescence ratio": 0.973},
      {"sequence": "GGGCGAGTTA", "switch fluorescence ratio": 1.04},
      {"sequence": "CGGAGTGGCC", "switch fluorescence ratio": 0.976},
      {"sequence": "TTCCCATTAC", "switch fluorescence ratio": 3.96},
      {"sequence": "GGCGCTCGTG", "switch fluorescence ratio": 0.993},
      {"sequence": "CCCCAAGAAA", "switch fluorescence ratio": 1.13},
      {"sequence": "GCTCAACTTC", "switch fluorescence ratio": 0.986},
      {"sequence": "TATATTAT", "switch fluorescence ratio": 1},
      {"sequence": "CAATTAGGCA", "switch fluorescence ratio": 0.988},
      {"sequence": "TCTAAAAATT", "switch fluorescence ratio": 1.16},
      {"sequence": "CAAAACAGCC", "switch fluorescence ratio": 1.09},
      {"sequence": "GTGAAAGCAG", "switch fluorescence ratio": 1.01},
      {"sequence": "GAGCGAGAGT", "switch fluorescence ratio": 0.992},
      {"sequence": "TTGGATCAGG", "switch fluorescence ratio": 0.991},
      {"sequence": "CCAAGGTGCA", "switch fluorescence ratio": 1.8},
      {"sequence": "GCCTTTTCGC", "switch fluorescence ratio": 1.09},
      {"sequence": "CTAGCTAGCT", "switch fluorescence ratio": 1.02},
      {"sequence": "TCCCACCCTT", "switch fluorescence ratio": 1.99},
      {"sequence": "TACTCGTTGG", "switch fluorescence ratio": 0.983},
      {"sequence": "AGCTGACGTG", "switch fluorescence ratio": 1.02},
      {"sequence": "TTGGCCTTCA", "switch fluorescence ratio": 1.32},
      {"sequence": "GCGCAGGGCA", "switch fluorescence ratio": 1.01},
      {"sequence": "TTGCTTAGTG", "switch fluorescence ratio": 0.995},
      {"sequence": "ATTCGTTAGG", "switch fluorescence ratio": 0.97},
      {"sequence": "ATTGCAGGAT", "switch fluorescence ratio": 0.985},
      {"sequence": "GTGGACCTGT", "switch fluorescence ratio": 0.994},
      {"sequence": "GTCTGTCGCT", "switch fluorescence ratio": 0.962},
      {"sequence": "GGGACGACGG", "switch fluorescence ratio": 1.04},
      {"sequence": "GGTATAAGTA", "switch fluorescence ratio": 0.987},
      {"sequence": "GTTATCGGTT", "switch fluorescence ratio": 0.98},
      {"sequence": "ATAAAGCGCA", "switch fluorescence ratio": 0.982},
      {"sequence": "TTCGAGGGTT", "switch fluorescence ratio": 0.983},
      {"sequence": "GAGCCGGCTA", "switch fluorescence ratio": 0.951},
      {"sequence": "TCAAAGCTTC", "switch fluorescence ratio": 1.23},
      {"sequence": "AGTGAAGTAC", "switch fluorescence ratio": 1.24},
      {"sequence": "ATAAATTTTA", "switch fluorescence ratio": 1},
      {"sequence": "GAGACCCTGA", "switch fluorescence ratio": 0.981},
      {"sequence": "GATGACATCA", "switch fluorescence ratio": 0.974},
      {"sequence": "ATAAAGAGGT", "switch fluorescence ratio": 0.955},
      {"sequence": "TTGACGTCCC", "switch fluorescence ratio": 1.21},
      {"sequence": "CGCTGGAGG", "switch fluorescence ratio": 0.99},
      {"sequence": "AACGCTGACG", "switch fluorescence ratio": 1.05},
      {"sequence": "ATCGTGTGGG", "switch fluorescence ratio": 0.977},
      {"sequence": "TGCGGCTAGC", "switch fluorescence ratio": 1.02},
      {"sequence": "CCTCGATCG", "switch fluorescence ratio": 1.04},
      {"sequence": "ACATCGGATT", "switch fluorescence ratio": 0.993},
      {"sequence": "TCTATTGCCT", "switch fluorescence ratio": 1.05},
      {"sequence": "CGAGGTCGAT", "switch fluorescence ratio": 0.979},
      {"sequence": "TCCTGATGTC", "switch fluorescence ratio": 1.03},
      {"sequence": "TACATCGCGC", "switch fluorescence ratio": 1.12},
      {"sequence": "GGCCTGTGGC", "switch fluorescence ratio": 0.978},
      {"sequence": "AAGCGGGCAC", "switch fluorescence ratio": 0.999},
      {"sequence": "GGCGCAAGA", "switch fluorescence ratio": 1.3},
      {"sequence": "CGGTATCCCC", "switch fluorescence ratio": 0.94},
      {"sequence": "ATCGGAGTG", "switch fluorescence ratio": 1},
      {"sequence": "TAATTACATC", "switch fluorescence ratio": 1.01},
      {"sequence": "GAGCGGCATG", "switch fluorescence ratio": 1.01},
      {"sequence": "CATATGGGAC", "switch fluorescence ratio": 1.05},
      {"sequence": "AGAATTCGG", "switch fluorescence ratio": 1},
      {"sequence": "GACTGAATGG", "switch fluorescence ratio": 1.01},
      {"sequence": "GGTAGCGATG", "switch fluorescence ratio": 1.07},
      {"sequence": "TGCTGAGGAC", "switch fluorescence ratio": 1.02},
      {"sequence": "TGACGTAGGA", "switch fluorescence ratio": 0.99},
      {"sequence": "TGCTCCGAGG", "switch fluorescence ratio": 1.37},
      {"sequence": "GGAATAAAGG", "switch fluorescence ratio": 1},
      {"sequence": "GATCGCCTTA", "switch fluorescence ratio": 1.08},
      {"sequence": "ACGAGAGCCA", "switch fluorescence ratio": 1.06},
      {"sequence": "CCCATCAGGG", "switch fluorescence ratio": 1.05},
      {"sequence": "AAACATGCAT", "switch fluorescence ratio": 1.03},
      {"sequence": "TACACGGCTC", "switch fluorescence ratio": 1.03},
      {"sequence": "AGCTAAACTG", "switch fluorescence ratio": 0.9},
      {"sequence": "CGTACAGTTG", "switch fluorescence ratio": 0.952},
      {"sequence": "GATCAATGGT", "switch fluorescence ratio": 1.06},
      {"sequence": "GGCAGCGACG", "switch fluorescence ratio": 1},
      {"sequence": "AGGTTCTAAA", "switch fluorescence ratio": 0.997},
      {"sequence": "GTGTATACGT", "switch fluorescence ratio": 1.01}
    ]}
  ]
}
